# Measured values: PubChem BioAssay AID1476 (National Center for Advancing Translational Sciences (NCATS), 2009)
# Out of some 200,000 compounds screened, about 4,500 (2.2%) were called active. The shares of active, inactive and inconclusive entries below differ from those in the screen. The call rests on the fitted dose curve; in most records, active means well fitted inhibition curve with a large enough effect; inconclusive means small, poorly fitted or top-dose-only effect, or effect the other way; inactive means flat fitted curve, though single readings scatter. Potencies of inconclusive entries are doubtful fits and often do not repeat.
# Target: Cruzipain (Trypanosoma cruzi) (UniProt P25779)
# UniProt P25779, sequence (P25779 whole entry, looked up): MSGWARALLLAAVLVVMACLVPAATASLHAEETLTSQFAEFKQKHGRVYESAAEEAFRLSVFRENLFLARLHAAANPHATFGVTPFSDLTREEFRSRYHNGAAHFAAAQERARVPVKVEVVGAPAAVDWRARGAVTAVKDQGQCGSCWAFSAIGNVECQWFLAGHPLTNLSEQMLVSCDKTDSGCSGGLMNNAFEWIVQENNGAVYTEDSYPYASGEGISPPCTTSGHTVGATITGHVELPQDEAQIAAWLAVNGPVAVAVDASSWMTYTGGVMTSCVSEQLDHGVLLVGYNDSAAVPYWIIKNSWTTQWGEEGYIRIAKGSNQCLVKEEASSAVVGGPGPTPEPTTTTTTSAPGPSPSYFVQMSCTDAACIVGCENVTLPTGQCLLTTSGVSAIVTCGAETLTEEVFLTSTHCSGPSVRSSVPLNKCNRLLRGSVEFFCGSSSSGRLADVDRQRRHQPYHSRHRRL
# Test: qHTS Assay for Promiscuous and Specific Inhibitors of Cruzain (without detergent); further: nearly all actives have a fitted effect of over 40% in size;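 on max response, negative = inhibition: plate controls were enzyme without inhibitor for no effect and buffer without enzyme for full effect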
# Conditions: purified cruzain, Z-FR-AMC fluorescence, no detergent
# Outline: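 Purified cruzain at 1.5 nM, pre-incubated 15 min with compound at room temperature in 100 mM sodium acetate pH 5.5, 5 mM DTT, 0.00005% Triton X-100. Reaction started with 2 uM Z-FR-AMC; AMC fluorescence increase over 60 s gives rate.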
# Potency means the concentration at half of the fitted maximal effect; tags describe the fitted curve by direction and shape.
Compound,Potency,"max response, negative = inhibition"
CCCN1C(=O)C(Cc2nc3ccccc3c(=O)n2CC)c2cc(Br)ccc21 (stereo unspecified),"inconclusive: 39.8 µM [activator, single point]",–
CCn1c(CN2CCCCC2)nc2cc(NC(=O)COc3ccc(C(C)(C)C)cc3)ccc21,–,inactive: -13.4%
COc1ccc2c(c1)NC(c1ccc(Cl)cc1)=NC(c1cccs1)=N2,"inconclusive: 39.8 µM [inhibitor, single point]",–
O=C(COC(=O)c1ccccc1[N+](=O)[O-])c1ccc(C2CCCCC2)cc1,"inconclusive: 20 µM [inhibitor, single point]",–
O=C(COC(=O)[C@@H]1CC(O)CN1S(=O)(=O)c1ccc([N+](=O)[O-])cc1)NC12CC3CC(CC(C3)C1)C2 (stereo partly specified),"inconclusive: 31.6 µM [activator, single point]",–
O=C(/C=C/c1cccc([N+](=O)[O-])c1)NCCN1C(=O)S/C(=C\c2ccc(F)cc2)C1=O,"inconclusive: 25.1 µM [inhibitor, single point]",–
CN(C)CCNC(=O)/C(=C/c1ccc(-c2ccc(Cl)cc2Cl)o1)NC(=O)c1ccccc1,"inconclusive: 39.8 µM [inhibitor, single point]",–
CCOC(=O)CSc1cccc2cccnc12,–,inactive: -2.71%
Cc1cccc(O)c1C,"inconclusive: 31.6 µM [activator, partial curve, poor fit]",–
O=C(Nc1nc(-c2ccccc2)cs1)c1ccc(S(=O)(=O)N2CCc3ccccc32)cc1,active: 6.31 µM,–
Cc1ccc(CN2C(=O)C3(c4ccccc42)N(c2ccc(C)c(Cl)c2)C(=O)CS3(=O)=O)cc1 (stereo unspecified),active: 1.26 µM,–
O=C(N1CCOCC1)N1CCN(c2nc(-c3ccccc3)cs2)CC1,"inconclusive: 31.6 µM [activator, single point]",–
C=CCNc1nnc(SCC(=O)N2CCCCC2)c2ccccc12,active: 20 µM,–
O=C(NCc1ccc2[nH]c3c(c2c1)CCCC3)c1ccc(S(=O)(=O)N2CCCCC2)cc1,"inconclusive: 31.6 µM [inhibitor, single point]",–
Cc1ccc(-c2nc3scc(CCNS(=O)(=O)c4ccc(Oc5ccccc5)cc4)n3n2)cc1,"inconclusive: 39.8 µM [inhibitor, single point]",–
Cn1c(=O)c2c(nc(SCc3nc(N)nc(N4CCCCC4)n3)n2C)n(C)c1=O,"inconclusive: 39.8 µM [activator, single point]",–
N#Cc1ccc(CSc2nnc(NC(=O)C3CCCO3)s2)cc1 (stereo unspecified),–,inactive: -6.12%
O=C(NC1CCCCC1)C(c1ccccc1)N(C(=O)Cc1ccsc1)c1ccccc1 (stereo unspecified),active: 15.8 µM,–
O=C(O)CCN1C(=S)CSC1=S,–,inactive: -0.705%
CSCCC(NS(=O)(=O)c1ccc2ccccc2c1)C(=O)OCC(=O)c1ccc(C(C)C)cc1 (stereo unspecified),"inconclusive: 31.6 µM [inhibitor, single point]",–
CCOc1ccc(S(=O)(=O)Nc2ccc(C(=O)N/N=C(\C)c3ccc(-n4ccnc4)cc3)cc2)cc1,"inconclusive: 39.8 µM [inhibitor, single point]",–

Compound,Potency,"max response, negative = inhibition"
COc1ccc(C(=O)N2CCC[C@@]3(CCN(Cc4ccccc4)C3)C2)cc1,–,inactive: 0.678%
CCc1ccc(NC(=O)CN2C(=O)CC(c3ccccc3)Sc3ccccc32)cc1 (stereo unspecified),"inconclusive: 5.01 µM [activator, single point]",–
CC(C)(C)OC(=O)N1CCC(c2c(C(=O)NCCN3CCOCC3)cnn2-c2ccc(F)cc2F)CC1,–,inactive: 20.4%
CCCSc1nnc2n(-c3ccccc3OC)c(=O)c3c4c(sc3n12)CCC4,"inconclusive: 25.1 µM [activator, single point]",–
CCCc1cc(=O)oc2cc(OCC(=O)OC)cc(OCC(=O)OC)c12,"inconclusive: 20 µM [activator, partial curve]",–
Cc1ccc(Cn2c(CN3CC(C)OC(C)C3)nc3c2c(=O)n(C)c(=O)n3C)cc1 (stereo unspecified),"inconclusive: 39.8 µM [activator, single point]",–
CCSC1=N/C(=C\c2ccc(-c3ccccc3[N+](=O)[O-])o2)C(=O)S1,"inconclusive: 25.1 µM [inhibitor, partial curve]",–
CC(C)c1ccc(C2C(C#N)=C(N)N3C(=C2C#N)Sc2ccccc23)cc1 (stereo unspecified),active: 7.94 µM,–
N#Cc1cc2c(=O)n3ccccc3nc2n(Cc2ccco2)c1=NC(=O)c1ccco1,"inconclusive: 31.6 µM [inhibitor, single point]",–
O=[N+]([O-])c1cccc(-c2nc(-c3ccccc3)c(-c3cccs3)[nH]2)c1,"inconclusive: 39.8 µM [inhibitor, single point]",–
Cc1cc(N2CCCC2=O)cc(C)c1S(=O)(=O)NCCOc1ccc(C(C)(C)C)cc1,"inconclusive: 39.8 µM [activator, single point]",–
CC1(C)CC(CCN(Cc2ccccc2)C(=O)c2ccco2)(c2ccccc2)CCO1 (stereo unspecified),"inconclusive: 39.8 µM [activator, single point]",–
Cc1nc(NC(=O)c2ccccc2)sc1-c1csc(Nc2cccc(F)c2)n1,"inconclusive: 31.6 µM [inhibitor, single point]",–
CCC(CC)C(=O)N1CCc2cc(OC)c(OC)cc2C1COc1ccc(F)cc1 (stereo unspecified),"inconclusive: 39.8 µM [activator, single point]",–
CCCCN1C(=O)C(NC(=O)c2cccnc2)(C(F)(F)F)C2=C1CC(C)(C)CC2=O (stereo unspecified),–,inactive: 1.45%
CSc1cc(-c2ccccc2)n(Cc2ccc(Cl)cc2Cl)c(=O)c1C#N,active: 25.1 µM,–
COc1ccc(/C=N/n2c(SC)nnc2-c2ccccc2)cc1C,"inconclusive: 39.8 µM [activator, single point]",–
Cc1c(Cl)cccc1-n1nnc(-c2nc(-c3ccc4c(c3)OCO4)no2)c1C,–,inactive: 2.86%
COc1cccc(NC2=CC(c3ccc(C(C)C)cc3)N(c3cccc(OC)c3)C2=O)c1 (stereo unspecified),"inconclusive: 7.94 µM [inhibitor, full curve, poor fit]",–
c1ccc2sc(NC3=NCCN3)nc2c1,"inconclusive: 31.6 µM [inhibitor, single point]",–
